Reference: the supplement of paper PMC4166925
± gives the standard deviation of the averaged measurements. Whole data set: some 33,000 sequences, median “E-score (dimensionless, -0.5 to 0.5)” near -0.049, cut for the highest 2% near 0.37. The list shows a part of the results.

What follows are sequences tested on T1, PmTbr T-box DNA-binding domain (GST fusion) (assay: PBM E-score of 8-mer (E-score (dimensionless, -0.5 to 0.5)); Tbr is Tbrain of the sea star Patiria miniata (Pm) or the sea urchin Strongylocentrotus purpuratus (Sp); higher = stronger binding preference; most listed sequences are background and not binding sites). Conditions: the construct has about 5 more residues each side.
T1 sequence: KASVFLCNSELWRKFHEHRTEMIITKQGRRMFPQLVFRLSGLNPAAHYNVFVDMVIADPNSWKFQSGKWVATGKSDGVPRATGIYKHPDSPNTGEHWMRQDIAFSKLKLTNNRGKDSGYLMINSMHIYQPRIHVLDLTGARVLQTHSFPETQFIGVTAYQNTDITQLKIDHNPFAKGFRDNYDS
How it was run: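 Primer extension turned Universal Agilent oligonucleotide arrays double-stranded. They were incubated with 200 nM protein in PBS (pH 7.5); the protein was a GST-fused Tbr T-box DNA-binding domain expressed in BL21 E. coli at 20 °C and purified on glutathione. Every ungapped 8-mer was scored from the scanned, quantified probe intensities, and the Universal PBM Analysis Suite gave each an enrichment E-score averaged over duplicate arrays.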

Question: Which “PBM E-score of 8-mer” value does the source give for GGGCCTCA here?
Answer: -0.165 ± 0.0037

Question: With GGAGCTTA as the sequence, how does the “PBM E-score of 8-mer” value read?
Answer: -0.18 ± 0.11

Question: Which “PBM E-score of 8-mer” value does the source give for CGGTATAA here?
Answer: -0.0515 ± 0.011

Question: With AGGCCTAC as the sequence, how does the “PBM E-score of 8-mer” value read?
Answer: -0.238 ± 0.088

Question: With ATATCCTG as the sequence, how does the “PBM E-score of 8-mer” value read?
Answer: -0.361 ± 0.025

Question: For CGGTTAAC, which “PBM E-score of 8-mer” value is on record?
Answer: 0.0802 ± 0.035

Question: How did the “PBM E-score of 8-mer” value turn out when AACAGATT was run?
Answer: 0.099 ± 0.11

Question: How did the “PBM E-score of 8-mer” value turn out when AAGCCGTG was run?
Answer: -0.00484 ± 0.044

Question: CGGGTTTC was tested. Which “PBM E-score of 8-mer” value did it give?
Answer: -0.071 ± 0.015

Question: For CATCGTTA, which “PBM E-score of 8-mer” value is on record?
Answer: 0.00456 ± 0.056

Question: For GACCTCAC, which “PBM E-score of 8-mer” value is on record?
Answer: 0.0743 ± 0.032

Question: Which “PBM E-score of 8-mer” value does the source give for CATTGTGG here?
Answer: -0.0877 ± 0.11

Question: Which “PBM E-score of 8-mer” value does the source give for ATTCATTA here?
Answer: 0.0337 ± 0.032

Question: TCCCAGCA was tested. Which “PBM E-score of 8-mer” value did it give?
Answer: 0.0248 ± 0.11

Question: Which “PBM E-score of 8-mer” value does the source give for AAAACGCC here?
Answer: 0.0828 ± 0.035

Question: With GAGGGCCA as the sequence, how does the “PBM E-score of 8-mer” value read?
Answer: -0.302 ± 0.031

Question: With CTGTTGCA as the sequence, how does the “PBM E-score of 8-mer” value read?
Answer: 0.075 ± 0.12

Question: AGACTGGC was tested. Which “PBM E-score of 8-mer” value did it give?
Answer: -0.0734 ± 0.036

Question: Which “PBM E-score of 8-mer” value does the source give for ACCTCTTC here?
Answer: 0.0295 ± 0.076

Question: With GCTATCTA as the sequence, how does the “PBM E-score of 8-mer” value read?
Answer: -0.0532 ± 0.092

Question: With GGCTTACC as the sequence, how does the “PBM E-score of 8-mer” value read?
Answer: -0.139 ± 0.096

Question: For AAAACACT, which “PBM E-score of 8-mer” value is on record?
Answer: 0.241 ± 0.029

Question: For CTTCACTC, which “PBM E-score of 8-mer” value is on record?
Answer: 0.0135 ± 0.0079

Question: For CGTTAAGC, which “PBM E-score of 8-mer” value is on record?
Answer: 0.0834 ± 0.024

Question: CCAAGTAC was tested. Which “PBM E-score of 8-mer” value did it give?
Answer: 0.0207 ± 0.054

Question: How did the “PBM E-score of 8-mer” value turn out when AGGCCCTC was run?
Answer: -0.448 ± 0.0054

Question: Which “PBM E-score of 8-mer” value does the source give for AACGAGAT here?
Answer: -0.176 ± 0.028

Question: How did the “PBM E-score of 8-mer” value turn out when AGAACGTC was run?
Answer: -0.0499 ± 0.094

Question: With GATTCTCA as the sequence, how does the “PBM E-score of 8-mer” value read?
Answer: 0.149 ± 0.025

Question: Which “PBM E-score of 8-mer” value does the source give for AGGGACGC here?
Answer: -0.185 ± 0.017

Question: Which “PBM E-score of 8-mer” value does the source give for ACCTGCGC here?
Answer: 0.0232 ± 0.034

Question: How did the “PBM E-score of 8-mer” value turn out when AGGCATCG was run?
Answer: -0.197 ± 0.012

Question: For AAGCTGTC, which “PBM E-score of 8-mer” value is on record?
Answer: 0.276 ± 0.032

Question: With GAGTCTGC as the sequence, how does the “PBM E-score of 8-mer” value read?
Answer: -0.138 ± 0.025

Question: How did the “PBM E-score of 8-mer” value turn out when GAACGTAA was run?
Answer: -0.106 ± 0.074

Question: How did the “PBM E-score of 8-mer” value turn out when CCCTAACA was run?
Answer: 0.154 ± 0.024

Question: How did the “PBM E-score of 8-mer” value turn out when CAGCCTTC was run?
Answer: 0.0672 ± 0.013

Question: Which “PBM E-score of 8-mer” value does the source give for GTACTGGA here?
Answer: -0.259 ± 0.044

Question: For AGTCCCGC, which “PBM E-score of 8-mer” value is on record?
Answer: -0.0686 ± 0.011

Question: How did the “PBM E-score of 8-mer” value turn out when ACGTTGGA was run?
Answer: -0.0523 ± 0.0094

Question: Which “PBM E-score of 8-mer” value does the source give for CACCTATA here?
Answer: 0.377 ± 0.018

Question: AGACGTCG was tested. Which “PBM E-score of 8-mer” value did it give?
Answer: -0.0747 ± 0.046

Question: Which “PBM E-score of 8-mer” value does the source give for GACGGTAA here?
Answer: -0.118 ± 0.051

Question: With ACAAAGGA as the sequence, how does the “PBM E-score of 8-mer” value read?
Answer: -0.0621 ± 0.014

Question: How did the “PBM E-score of 8-mer” value turn out when CTCCAATA was run?
Answer: -0.0377 ± 0.038

Question: How did the “PBM E-score of 8-mer” value turn out when CAATTAGG was run?
Answer: 0.213 ± 0.054

Question: ATCGGCCG was tested. Which “PBM E-score of 8-mer” value did it give?
Answer: -0.17 ± 0.072

Question: For GAAGCGAA, which “PBM E-score of 8-mer” value is on record?
Answer: -0.0411 ± 0.045

Question: Which “PBM E-score of 8-mer” value does the source give for ACATTCGT here?
Answer: 0.061 ± 0.0019

Question: How did the “PBM E-score of 8-mer” value turn out when AGTATCGG was run?
Answer: -0.12 ± 0.027

Question: Which “PBM E-score of 8-mer” value does the source give for ATGATTAA here?
Answer: -0.0667 ± 0.099

Question: With TCACACGA as the sequence, how does the “PBM E-score of 8-mer” value read?
Answer: 0.351 ± 0.02

Question: Which “PBM E-score of 8-mer” value does the source give for ACAGACTG here?
Answer: -0.153 ± 0.055

Question: Which “PBM E-score of 8-mer” value does the source give for GCCCTGAC here?
Answer: -0.0459 ± 0.073

Question: With TACACTGA as the sequence, how does the “PBM E-score of 8-mer” value read?
Answer: -0.0183 ± 0.006

Question: Which “PBM E-score of 8-mer” value does the source give for GTAAAGAC here?
Answer: -0.209 ± 0.0068

Question: With CCCTCAAA as the sequence, how does the “PBM E-score of 8-mer” value read?
Answer: -0.0698 ± 0.058

Question: Which “PBM E-score of 8-mer” value does the source give for CACTGAGC here?
Answer: -0.026 ± 0.018

Question: For GTGAGAAC, which “PBM E-score of 8-mer” value is on record?
Answer: 0.44 ± 0.0046

Question: How did the “PBM E-score of 8-mer” value turn out when ATTAATTC was run?
Answer: -0.198 ± 0.076

Question: With AGGGATCA as the sequence, how does the “PBM E-score of 8-mer” value read?
Answer: -0.131 ± 0.037

Question: AGCAACCC was tested. Which “PBM E-score of 8-mer” value did it give?
Answer: 0.0851 ± 0.039

Question: Which “PBM E-score of 8-mer” value does the source give for AACGGGGT here?
Answer: -0.136 ± 0.084

Question: How did the “PBM E-score of 8-mer” value turn out when AGAAAACA was run?
Answer: 0.0444 ± 0.03

Question: For CGGAAACC, which “PBM E-score of 8-mer” value is on record?
Answer: 0.174 ± 0.0024

Question: Which “PBM E-score of 8-mer” value does the source give for ACAAATGC here?
Answer: 0.0343 ± 0.039

Question: AAAGGACA was tested. Which “PBM E-score of 8-mer” value did it give?
Answer: -0.00333 ± 0.022

Question: How did the “PBM E-score of 8-mer” value turn out when GTCATGGA was run?
Answer: -0.173 ± 0.027

Question: TAGCCGCA was tested. Which “PBM E-score of 8-mer” value did it give?
Answer: -0.085 ± 0.025

Question: Which “PBM E-score of 8-mer” value does the source give for CAGGACAG here?
Answer: 0.011 ± 0.041

Question: How did the “PBM E-score of 8-mer” value turn out when ATCAAATC was run?
Answer: -0.244 ± 0.069

Question: For GAGGCCAA, which “PBM E-score of 8-mer” value is on record?
Answer: -0.197 ± 0.058

Question: How did the “PBM E-score of 8-mer” value turn out when AATTGAGA was run?
Answer: -0.118 ± 0.086

Question: For CCGATTAC, which “PBM E-score of 8-mer” value is on record?
Answer: 0.0603 ± 0.097

Question: With TACCACTA as the sequence, how does the “PBM E-score of 8-mer” value read?
Answer: -0.0269 ± 0.01

Question: Which “PBM E-score of 8-mer” value does the source give for AAGAAACA here?
Answer: 0.0209 ± 0.13

Question: With GGGCACCC as the sequence, how does the “PBM E-score of 8-mer” value read?
Answer: -0.156 ± 0.016

Question: For ACCAGTAT, which “PBM E-score of 8-mer” value is on record?
Answer: -0.087 ± 0.037

Question: How did the “PBM E-score of 8-mer” value turn out when AATATCGT was run?
Answer: -0.104 ± 0.12

Question: GTAGACCA was tested. Which “PBM E-score of 8-mer” value did it give?
Answer: -0.2 ± 0.022

Question: With CGTTTCAA as the sequence, how does the “PBM E-score of 8-mer” value read?
Answer: -0.022 ± 0.0086

Question: Which “PBM E-score of 8-mer” value does the source give for ATTGGATA here?
Answer: -0.22 ± 0.0046

Question: For TGCTAACA, which “PBM E-score of 8-mer” value is on record?
Answer: 0.369 ± 0.041

Question: For ATCTTATG, which “PBM E-score of 8-mer” value is on record?
Answer: -0.215 ± 0.0049

Question: How did the “PBM E-score of 8-mer” value turn out when ACCTGGCA was run?
Answer: 0.288 ± 0.011

Question: For AAATTTCA, which “PBM E-score of 8-mer” value is on record?
Answer: 0.109 ± 0.086
